Assay results published in the RNAGym collection of RNA variant scans (doi:10.1093/nar/gkz1192).
Read counts are not given, so values of variants with three or more changes are uncertain.

B1: CPEB3 Ribozyme (parent)
chain: UAACAGGGGGCCACAGCAGAAGCGUUCACGUCGCAGCCCCUGUCAGAUUCUGGUGAAUCUGCGAAUUCUGCUGUAUAUCUC

Variants of: B1
Assay: self-cleavage, relative activity (ratio to wild type); higher = more cleavage; in vitro, sequencing
In short: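 CPEB3 self-cleaving ribozyme mutant libraries were made by rounds of error-prone PCR, barcoded, and transcribed in vitro with T7 RNA polymerase for 5 hours at 37°C. Cleavage occurred during transcription and a 15 min DNase I step before EDTA stop. RNAs were reverse transcribed with template switching and Illumina-sequenced, with DNA sequencing mapping barcodes to variants. Relative activity is the variant's cleaved/total read fraction divided by wild type's (minimum 5 reads), averaged across three batches.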
For A5U U51C G63A U67C, the self-cleavage was 0.37. For A5U U48C A57G, the self-cleavage was 1.15. With G6A A45U U60C U78A U80A the self-cleavage was 0.17. With G6A C12U A28G A77U the self-cleavage was 0.09. For G6A A18G A20G U41C U58C A65U U72A, the self-cleavage was 0. With A5U U25C A28U the self-cleavage was 0.22. Work on A5U U25C A45C yielded a self-cleavage of 0.12. In the case of A5U G7C A47U G70C, the self-cleavage is reported as 0.04. Variant A5U U31A G42C has a self-cleavage of 0.26. For A5U U31A A57U, the self-cleavage was 0.19. A5U U25C A35G A57G U66C U80C gave a self-cleavage of 0.14. Work on A5U G9U C11G A45G yielded a self-cleavage of 0.29. In the case of A5U U25A C29U G42U U48A A56U G70U, the self-cleavage is reported as 0. Work on A5U G7C G10A A13G A18U yielded a self-cleavage of 0.56. Work on G6A G8U A13G A35G U74C U80C yielded a self-cleavage of 0.05. In the case of A5U G9A A20G U67C U72C, the self-cleavage is reported as 0.26. Variant A5U G8U A18G U49A has a self-cleavage of 0.21. Work on A5U U25C G30A U48C U58A A65G yielded a self-cleavage of 0.06. Work on A5U U26C U60C U76C yielded a self-cleavage of 0.34. For A5U U43C U58C, the self-cleavage was 0.2. With A5U G9U A20C U25C A45G the self-cleavage was 0.11. Variant G6A C14G A18G A75U has a self-cleavage of 0.37. With G6A A47G U54C the self-cleavage was 0.31. In the case of A5U U31A U80A, the self-cleavage is reported as 0.98. In the case of G6A A20G A28G G33A G63U U66C C71G, the self-cleavage is reported as 0.09. A5U U26C U60A U76A showed a self-cleavage of 0.6. Variant G6A A21G U31C U41A U54C has a self-cleavage of 0.08. G6A A13G A15U gave a self-cleavage of 0.13. G6A A18G A28U A56G A65G U66C U80A showed a self-cleavage of 0.02. For G6A A35G A56G, the self-cleavage was 0.57. For G6A G7A A20C G24A A65G U72A, the self-cleavage was 0.05. With G6A A28G U43C A65G U66C A77U the self-cleavage was 0.05. Variant G6A C11U U25G U54C has a self-cleavage of 0.05. G6A A47U U80A showed a self-cleavage of 0.08. With G6A A20G A35G U76A the self-cleavage was 0.47. For G6A A15U A47U A57U G70A U80C, the self-cleavage was 0.07. Work on G6A A20G U41A U51C yielded a self-cleavage of 0.13. Work on G6A A35G U41A U49A U69C yielded a self-cleavage of 0.07. A5U G10A A13G A35G C38G U67C gave a self-cleavage of 0.14. Variant A5U U41C A45G U60C has a self-cleavage of 0.85. For G6A G9A A18G A45G U54C A64G A75U, the self-cleavage was 0. With A5U U41C U67C the self-cleavage was 0.34. G6A C34U A64U gave a self-cleavage of 0.19. Work on G6A A45G A47U G52U yielded a self-cleavage of 0.16. Work on G6A A20G U72A A77G yielded a self-cleavage of 0.33. For A5U U48C G52A G63U U67C, the self-cleavage was 0.35. With A5U U41A A56G the self-cleavage was 0.24. A5U G42C U66C U78C showed a self-cleavage of 0.17. G6A C17G G30U U49C A56G showed a self-cleavage of 0.07. With G6A C32U A35U A45G U72A U80C the self-cleavage was 0.05. For A5U U60A A64G, the self-cleavage was 0.69. For A5U G9A A20G U25C A45U C59A U72A, the self-cleavage was 0.04. Work on A5U U26A G30A U54A U76C yielded a self-cleavage of 0.17. In the case of A5U U69C U80C, the self-cleavage is reported as 0.6. Work on A5U U69C U80A yielded a self-cleavage of 1.07. A5U G19A C23U U51C A56G U67C U69A gave a self-cleavage of 0.06. Work on A5U U31A U72A yielded a self-cleavage of 0.42. With A5U U51A U78C the self-cleavage was 0.73. G6A A13G A15G U26C U76C gave a self-cleavage of 0.31. G6A A13U A21G U25C U41C U60C gave a self-cleavage of 0.07. Work on A5U G8U A21G U25C U51C A56U yielded a self-cleavage of 0.15. With G6A A21U C27U A28G U80C the self-cleavage was 0.15. Variant A5U G9A A13G U41A U60A A65G has a self-cleavage of 0.07. Variant A5U G9C A13G A28G has a self-cleavage of 0.34. A5U U41G U43A U48C gave a self-cleavage of 0.62. With A5U U41A A47C U54A the self-cleavage was 0.12. With A5U G10U U41C A56G G63U the self-cleavage was 0.35. Variant A5U U25C A35C G42A A47G U49C has a self-cleavage of 0.08. Work on G6A A15G G30A A35U U69A yielded a self-cleavage of 0.05. G6A C17U A18U showed a self-cleavage of 0.46. Work on A5U U41C U66A yielded a self-cleavage of 0.39. For G6A C12A U67C, the self-cleavage was 0.2. Work on G6A G7U G8A A13U U41A U72C yielded a self-cleavage of 0.07. With G6A A20G A21C U26A the self-cleavage was 0.6. A5U U41C U54A A64G gave a self-cleavage of 0.64. With G6A A15G U31C U80C the self-cleavage was 0.54. For A5U U51C U74C, the self-cleavage was 1.18. For A5U U48C U69C, the self-cleavage was 0.72. G6A A15G U41A gave a self-cleavage of 0.35. Variant G6A A18U U43C C68A has a self-cleavage of 0.05. A5U G9A A15G A47G U54G showed a self-cleavage of 0.46. In the case of G6A A28G U76C U80C, the self-cleavage is reported as 0.37. G6A A13U A28G U41C U58C A65G U72A gave a self-cleavage of 0.04. In the case of A5U G10A A18G C38U C40U A64G U67C, the self-cleavage is reported as 0.03. In the case of A5U G10A G24A C32U A57G A65G U67A, the self-cleavage is reported as 0.04. G6A A45C U69C showed a self-cleavage of 0.13. With G6A A35U U69C the self-cleavage was 0.12. Variant A5U G19A U48C has a self-cleavage of 0.43. G6A C11A A15G A20G U31A C38U showed a self-cleavage of 0.04. In the case of A5U G24U U26C A28G C37G U43C U69A, the self-cleavage is reported as 0.05. G6A A21G A35G U41A A57G U67C showed a self-cleavage of 0.05. A5U U43A A56G showed a self-cleavage of 1.05. With A5U U41C U69G U80C the self-cleavage was 0.42. In the case of A5U G9A U74A, the self-cleavage is reported as 0.51. A5U U26A U80A showed a self-cleavage of 1.14. G6A A20U G33A U51C A65U U67A showed a self-cleavage of 0.04. G6A C11U A15G A20G A28G gave a self-cleavage of 0.07. For A5U G10A G19A, the self-cleavage was 0.39. In the case of G6A A28G G46U A56C, the self-cleavage is reported as 0.12. A5U G30A U41G U69A gave a self-cleavage of 0.09. In the case of A5U G8C U25A U26A U51G, the self-cleavage is reported as 0.4. In the case of G6A C17U U60C C71A, the self-cleavage is reported as 0.06. Variant A5U U60C U74C has a self-cleavage of 0.82. G6A C23G C40A U60C showed a self-cleavage of 0.13. Variant A5U U78C U80C has a self-cleavage of 0.77. In the case of A5U U31A U60A, the self-cleavage is reported as 0.4. For A5U U26A A47G G70A A75G, the self-cleavage was 0.47. A5U U25C U31C gave a self-cleavage of 0.25. For A5U U48C A64G, the self-cleavage was 0.41. In the case of G6A A20U A45U A47G U54A U76A, the self-cleavage is reported as 0.05. G6A A15G C38A A45G U72C gave a self-cleavage of 0.11. A5U U41A A64U gave a self-cleavage of 0.1. With A5U U67C U76C the self-cleavage was 0.32. Work on G6A A13G U41A A45G U76C U78A yielded a self-cleavage of 0.05. G6A G8U C40U U49A showed a self-cleavage of 0.06. Variant G6A A20G U66C U76G has a self-cleavage of 0.16. G6A A20G C32A A64G gave a self-cleavage of 0.18. With A5U U31C G33A A35G C40U U48C U67A the self-cleavage was 0.12. A5U G63A A77G showed a self-cleavage of 1.03. A5U U26C A35G U43A U49C U67C gave a self-cleavage of 0.09. A5U U41C A45U gave a self-cleavage of 0.48. A5U U26A U49C G70A U80C showed a self-cleavage of 0.15. G6A C40U A64G U66C showed a self-cleavage of 0.08. G6A A18G U41A U49C showed a self-cleavage of 0.07. Work on A5U G19U U25C A56G A57G A77G U80A yielded a self-cleavage of 0.06. With A5U G8U U25C C32U the self-cleavage was 0.24. For A5U U31A A45G, the self-cleavage was 0.45. Work on A5U G8A U25C U48A U60A yielded a self-cleavage of 0.07. Work on A5U U25C C34U A47G yielded a self-cleavage of 0.14. A5U U51A A64G gave a self-cleavage of 1.02. Variant G6A G9A A13U C34G U66C has a self-cleavage of 0.06. With G6A A20G A65U the self-cleavage was 0.4. G6A A64G A65G U76A U80C gave a self-cleavage of 0.05. A5U U31C U69A U72C gave a self-cleavage of 0.15. Work on G6A A18G A45U U60C C71G yielded a self-cleavage of 0.06. Variant G6A A45U A56G A57G has a self-cleavage of 0.08. With G6A A15G A20G the self-cleavage was 0.09. For A5U U31C G63U, the self-cleavage was 0.88. G6A A18G U31C G52A C62A U69C gave a self-cleavage of 0.05. A5U G24A U25C A57G U58C gave a self-cleavage of 0.31. For A5U U48C U66C U69A C71U, the self-cleavage was 0.08. A5U U31C U51G showed a self-cleavage of 0.58. In the case of G6A A13U U26A, the self-cleavage is reported as 0.31. G6A A15G U72A U74C showed a self-cleavage of 0.45. A5U U26C U51A U69C gave a self-cleavage of 0.46. Work on A5U U26A A28G A47G U72C yielded a self-cleavage of 0.72. With A5U U25C A35G C37U U41C the self-cleavage was 0.41. In the case of G6A A21G U25C U41C U60C, the self-cleavage is reported as 0.31. G6A A45G A65U U67A showed a self-cleavage of 0.39. In the case of A5U U25C U72A, the self-cleavage is reported as 0.16. In the case of G6A C29G U48C U51C U54G, the self-cleavage is reported as 0.07. Variant G6A C11G U31A A45G U58C U66C U72G has a self-cleavage of 0.07. Variant G6A A20C U31A has a self-cleavage of 0.09. A5U G53C U67C showed a self-cleavage of 0.36. G6A A47G U67C U72C C81A gave a self-cleavage of 0.04. In the case of A5U U25C G63U U72C, the self-cleavage is reported as 0.17. A5U U25C A45G U66C U67C showed a self-cleavage of 0.26. G6A C11G U58C A64G G73A U78A gave a self-cleavage of 0.81. Work on A5U G46U U48C yielded a self-cleavage of 0.46. G6A A13G A47G C59G showed a self-cleavage of 0.06. Work on G6A A15G U41G A77U yielded a self-cleavage of 0.3. G6A C32A U72C gave a self-cleavage of 0.3. Work on A5U G10U A18U A20U U25C U67A C71G yielded a self-cleavage of 0.03. Work on A5U U48C G53U U69A G73A yielded a self-cleavage of 0.51. Work on A5U U41A G55A G61A U78C yielded a self-cleavage of 0.04. With A5U U54A U78A the self-cleavage was 1. A5U U25A A28G A57U gave a self-cleavage of 0.06.
